Source: PubChem BioAssay AID2675 (National Center for Advancing Translational Sciences (NCATS), 2010)
“And” between values parts separate entries of the source, which are not always exact repeats. Identical values can stand only once. The campaign covered roughly 280,000 compounds. About 100 (0.036%) were called active. The shares of active, inactive and inconclusive entries below differ from those in the screen. Calls follow the shape of the dose curve; as a rule, active = well fitted inhibition curve with a large enough effect in the signal ratio, with a control signal flat (not every such curve was filed as active); inconclusive = small, poorly fitted or top-dose-only effect, or effect the other way, or a change in a side signal; inactive = no such curve, though single readings can be large or run the other way; the % refers to the signal ratio. Potencies beside an inconclusive call are fits to weak or partial responses and may not hold up. A note “side channel” means that the fit belongs to a control or component signal, not to the main read-out.
Potency is read from the fitted curve at half-maximal effect; tags tell the direction and shape of the fitted curve or compound fluorescence and quenching.

What follows are compounds tested against Muscleblind-like protein 1 (Homo sapiens) (UniProt Q9NR56) (assay: qHTS Assay for Inhibitors of MBNL1-poly(CUG) RNA binding). Details: TR-FRET MBNL1-His/biotin-(CUG)12 binding, 665/545 ratio; series mostly up to 57.5 µM.
Chain of UniProt Q9NR56 (Q9NR56 whole entry, looked up): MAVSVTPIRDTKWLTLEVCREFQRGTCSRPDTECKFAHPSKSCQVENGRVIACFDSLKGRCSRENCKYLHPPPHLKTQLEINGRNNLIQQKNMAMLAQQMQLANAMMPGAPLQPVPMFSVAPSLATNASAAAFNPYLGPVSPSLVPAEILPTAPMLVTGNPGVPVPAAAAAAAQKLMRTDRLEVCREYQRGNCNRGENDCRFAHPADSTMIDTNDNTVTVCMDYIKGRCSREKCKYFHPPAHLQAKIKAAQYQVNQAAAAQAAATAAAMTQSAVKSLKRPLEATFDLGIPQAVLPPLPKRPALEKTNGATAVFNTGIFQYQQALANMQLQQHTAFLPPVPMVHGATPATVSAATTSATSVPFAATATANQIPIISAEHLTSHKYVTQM
How it was run: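 MBNL1-His + Biotin-(CUG)12, cpd titration 92 nM–58 uM; Tb anti-His Ab 0.055 ng/ul, SA-XL665 5 nM (final); 60 min RT; ratiometric 665/545 nm, Ex 340 nm; normalized to buffer and full-complex controls.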
In the case of `CN1CCN(c2ccc([N+](=O)[O-])cc2C(=O)c2ccccc2)CC1`, the Potency was inconclusive: 14.1 µM [quencher, side channel, partial curve].
In the case of `Cn1c(SCC(=O)NNC(=O)Cc2ccccc2)nc2ccccc2c1=O`, the Potency was “inactive”.
In the case of `S=c1[nH]c2cc3ccccc3cc2[nH]1`, the Potency was inconclusive: 14.1 µM [quencher, side channel, partial curve] and inconclusive: 8.91 µM [quencher, side channel, partial curve].
For `CC1(c2ccc([N+](=O)[O-])cc2)NC(=O)NC1=O` (configuration not stated), the Potency was inconclusive: 12.6 µM [quencher, side channel, partial curve].
For `COc1cccc(Nc2ccc(C(=O)O)cc2N)c1`, the Potency was “inactive”.
With `CCNc1c([N+](=O)[O-])c(=O)oc2ccccc12` the Potency was inconclusive: 28.2 µM [quencher, side channel, partial curve].
In the case of `CCCCCCc1cc2cc(-c3nnc(-c4ccccc4OC)o3)c(=O)oc2cc1O`, the Potency was “inactive”.
For `O=C(CN1C(=O)c2cccc([N+](=O)[O-])c2C1=O)NCc1ccccc1`, the Potency was inconclusive: 11.2 µM [quencher, side channel, partial curve].
`CSc1c(C#N)sc(=S)n1-c1ccc(C)cc1` was tested, and the Potency was inconclusive: 15.8 µM [quencher, side channel, partial curve].
`CCOc1cc(/C=N/NC(=O)c2cccs2)cc([N+](=O)[O-])c1O` was tested, and the Potency was inconclusive: 4.47 µM [quencher, side channel, full curve].
`CC1CCCN(C(=O)Cn2nnc(-c3ccc([N+](=O)[O-])cc3)n2)C1` (configuration not stated) was tested, and the Potency was inconclusive: 14.1 µM [quencher, side channel, partial curve].
For `Cc1[nH]c(=O)[nH]c(=O)c1NC(=O)c1sc2nc3c(C)cccc3cc2c1N`, the Potency was inconclusive: 15.8 µM [quencher, side channel, partial curve].
In the case of `c1ccc(-c2nnc(-c3ccccn3)c(-c3ccccn3)n2)nc1`, the Potency was inconclusive: 10 µM [quencher, side channel, partial curve].
In the case of `Cc1ccc(-c2noc(N=O)c2NO)cc1`, the Potency was inconclusive: 35.5 µM [quencher, side channel, partial curve].
With `Cc1cc(C)c(NC(=S)N(CCN2CCCCC2)Cc2ccco2)c(C)c1` the Potency was “inactive”.
With `COc1cc(CNCc2ccccn2)ccc1OCC(=O)NC(C)(C)C` the Potency was inconclusive: 0.251 µM [fluorescent, side channel, partial curve].
For `CC(C)CNC(=S)NC(=O)c1csc([N+](=O)[O-])c1`, the Potency was inconclusive: 14.1 µM [quencher, side channel, partial curve].
